This is one part of the list.

The test system of this assay is PfSIP2 AP2 domain 1 (GST-tagged). Put plainly: gcPBM binding intensity (ln(normalized median fluorescence intensity)); higher = stronger DNA binding. Put shortly:
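Alexa488 anti-GST antibody, scanned at 488 nm, detected GST-tagged P. falciparum DNA-binding domains that had been expressed in E. coli and incubated for 1 h on an Agilent 4 × 180k array. The array carried primer-extended double-stranded 36-bp intergenic genomic probes and negative controls. Binding intensity is the highest Masliner-normalised natural-log median intensity across replicate spots of either orientation of each probe.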
For the sequence “GTATATTAATAAACATGTACACAATTTATTTATATT [XGTACX_site1012]”, the “gcPBM binding intensity (ln)” value came out at 7.25.
For “TTTTTTTTTTGAAGTGCATGTTACGATGAAAAAAAA [TGCATGCA_site64]”, the “gcPBM binding intensity (ln)” value was determined as 8.92.
Consider “TTTTTTTTTAAATGTTGTACATTATATTTGTGTATA [XGTACX_site8354]”, for which the “gcPBM binding intensity (ln)” value was 6.88.
The figure for “ACATATAAAATGATGCGTACATATTTGATCATATAC [XGTACX_site153]” is 7.11; for “CTAAATAACTTAAGGTGTACGTTTCCAATAAAAAAA [XGTACX_site1742]” it is 7.06; for “TGTAGCCTGGAGAAGAGTACATAGTATCTGGTAGCT [XGTACX_site4943]” it is 6.7.
The same measure for “CGTATGTGCGGACATGCATGCAATATACAAGAAAAA [TGCATGCA_site145]”: 7.29.
The figure for “AATGGAAATTTTTCTTGTACACATATATGACATGTT [XGTACX_site1691]” is 7.05; for “TTTTTTTTTACTGCATGTACTTGATGTAAATAAATT [XGTACX_site3045]” it is 7.09.
As for “AATATGACGTAGTGGTGTACACACATGGTACCTTTA [XGTACX_site3147]”, the “gcPBM binding intensity (ln)” value came to 7.41.
Consider “TATAGAATAATCTATAAACACACAAACACAACAAAA [CACACA_site9374]”, for which the “gcPBM binding intensity (ln)” value came out at 7.21.
The figure for “AAAAGATAATTATGCACACACACACCCCCACCCAAC [CACACA_site2570]” is 9.49.
For the sequence “TTATAAATATAATTTTGTACATATATATATATATAC [XGTACX_site5064]”, the “gcPBM binding intensity (ln)” value stood at 7.39.
The figure for “TTAGAACTATTTTATACATGCAGTTATTTAATACTT [TGCATGCA_site1039]” is 6.77; for ACAACAATTCACTTGATGCACTAACCAAAAAAATAA it is 8.67.
Turning to “CACGCACGCAGACACACACACACACGCACATATATA [CACACA_site6303]”, the “gcPBM binding intensity (ln)” value worked out at 7.31.
The figure for “ATATATTTTCCTTCAAGTACACATATAAATGTGTAT [XGTACX_site6633]” is 7.25; for “ATTAAAATATAAGTCACACATATATATATATATATA [CACACA_site6145]” it is 9.26.
For the sequence “TATTTTTTTTTATTTTTTTTTATTTTGTTTTTTTAT [TGCATGCA_negctrl_site315]”, the “gcPBM binding intensity (ln)” value was 6.8.
The same measure for “AAAAAAATAATCATCACACACGGAGAATGTCCAATA [CACACA_site5305]”: 6.84; for “ACATATATTTTTTTTTGTACATATAAATATATATAT [XGTACX_site6491]”: 8.15; for “AACGTAAAACATATCTATCAAAATAAATCATTAATC [TGCATGCA_negctrl_site68]”: 6.61.
Turning to “AATATAATAATATTTTGTACATATCCTATGTATGAG [XGTACX_site8601]”, the “gcPBM binding intensity (ln)” value was 6.96.
For the sequence “AATGTTTATTAACATTGTACTTATAATATGTCACAA [XGTACX_site2974]”, the “gcPBM binding intensity (ln)” value is 6.85.
“AATAATAAAGATCAATGTACATAATAAAAAAAAAAA [XGTACX_site2692]”: the “gcPBM binding intensity (ln)” value is 6.87.
The same measure for “TATCATGGGTGTATTTCACACACGGATAATCATTTA [CACACA_site8211]”: 6.61; for “TTATTAAGTAAATCACATTTAATTTTTTTTTTTTTT [CACACA_negctrl_site1280]”: 6.94; for “CACATATAAATATTAACACACATAATGAGTTATATA [CACACA_site7316]”: 6.87.
The figure for “TTATACCATATTTATAGTACGTACAAATAAATCAAT [XGTACX_site4975]” is 7.3; for “AAGAAAAAAAAAAAAAGTACATGCAATATGGATCTT [XGTACX_site3106]” it is 6.86; for “AAACAACATATATTAATATGTACATATATATAGATA [GTGCAC_negctrl_site229]” it is 7.08.
The figure for “TTTTTTTTTTTTGTAACACACAATAATATAACATTA [CACACA_site3411]” is 6.87; for “TTTTTATTGTTATAGTTATAATATATTATTTGATTA [XGTACX_negctrl_site27]” it is 7.04.
As for “AATAATTGTTAAAGCTGTACAATACTTATATAAGAA [XGTACX_site5729]”, the “gcPBM binding intensity (ln)” value was 7.09.
The figure for “TATCCTAACTTTAGATGTACACAAATAAAAAAAAAA [XGTACX_site4491]” is 7.37; for “CCATATAAAATATAAAAACACACGTATATATACATA [CACACA_site1511]” it is 6.88.
As for “ATTCAATCTTTTAATACACACAATTTATTTCAAAAC [CACACA_site835]”, the “gcPBM binding intensity (ln)” value is 7.07.
Turning to “ACAAAATGTAGAAAATGTACAAAATTAACAAAAGAA [XGTACX_site5019]”, the “gcPBM binding intensity (ln)” value is 7.28.
For “TGTACATATATATAGATATATATAGATATATATATA [CACACA_negctrl_site1678]”, the “gcPBM binding intensity (ln)” value was 8.69.
As to “TTTTAAAAAGATCATTAAAAAAAAAAAAAGAACAAA [CACACA_negctrl_site528]”, the “gcPBM binding intensity (ln)” value turned out to be 6.88.
As for “ATAATATAACAATACGCACACGTATACAAAAAAAAA [CACACA_site5703]”, the “gcPBM binding intensity (ln)” value came to 7.25.
Turning to “AAATAATGGTTAGCTACACACAAAGCATTTTTTGAA [CACACA_site1016]”, the “gcPBM binding intensity (ln)” value stood at 6.66.
The figure for “AAAATACAAACAAGTGGTACTGTTTATAAATGGTTG [XGTACX_site1503]” is 6.81; for “TTGTATATATTTATATGTACATATATTACTTTTGCT [XGTACX_site2449]” it is 7.15; for “TGTCTTGTAAATTATTGTACTATTTAAAGTATACAA [XGTACX_site7864]” it is 7.21.
The same measure for “TTGATTACACTGAAGTGTACATATATATATATATAT [XGTACX_site3532]”: 9.07.
The same measure for “AATATCCACATTAGGAGTACACAGCTAACTGTTTGA [XGTACX_site3357]”: 6.94.
As to “TTTTATATAAAATCGTGTACATACCATTTCCTATTA [XGTACX_site5159]”, the “gcPBM binding intensity (ln)” value stood at 7.06.
The same measure for “AAAAAAAAAAGAAACACACACATTTGTATATAATAT [CACACA_site2078]”: 6.91; for “AAATAATAAAAAAAATGTACACGTAAATATTATATT [XGTACX_site8125]”: 7.17.
The same measure for “CATATAAAAATGTGCACACACACACCCATATATATT [CACACA_site1526]”: 9.06; for “AAAATTAATAAATAAACACACATATATATATATATA [CACACA_site2598]”: 9.24.
The same measure for “TTTTTGCCATATTACACACACACATGTAAACCCCCT [CACACA_site1647]”: 8.17; for “GTGAAATATGCAAACACACACGAGAAAAATGTATAT [CACACA_site7488]”: 7.35; for “CAAAACAAAACGTATGCACACAATTAATATATTAAA [CACACA_site3405]”: 7.9.
As for “AGAGTTCTCATATGCACACAAAAAACTTTCATTTAT [CACACA_site45]”, the “gcPBM binding intensity (ln)” value was 8.3.
The figure for “AAATAAATCTTATGCACACAAATAATTAATTAAACA [CACACA_site1693]” is 8.36; for “TATTTTTTTCTTACATACTAATTTGGTACTCACATA [TGCATGCA_negctrl_site81]” it is 7.1.
The same measure for “AACCCCGTGGAAATATGTACATATAAATATATAAAT [XGTACX_site2094]”: 6.99; for “TAAATAAGCACATACACACATACATACATACATAAA [CACACA_site4017]”: 7.22; for “ATAAAATGATAAATTTGTACACAAAAAAAAAAAAAA [XGTACX_site964]”: 6.95.
The figure for “AAAATAAAATATTTCTGTACTTATAACTATTCTATA [XGTACX_site8007]” is 6.88.
Take “GGGTATACAAATAAACGTACAAACTCATAAAAAAAA [XGTACX_site3191]”: the “gcPBM binding intensity (ln)” value came to 7.11.
The same measure for “CATATATAACAATTCTCACACATAAAAAAAAAAAAT [CACACA_site4564]”: 7.05; for “TTAAAAAAATATAATACACACCAAAAATATGCACAT [CACACA_site5209]”: 9.27.
Regarding “TTTTTATGGTAAATAAAAATATCTCCCTCCTTAATT [CACACA_negctrl_site1352]”, the “gcPBM binding intensity (ln)” value is 6.68.
The same measure for TAATAATTTATAATAGTGCATTTGATTTTAAAAATA: 8.81.
Turning to “TCTTTTTAAACTAATAGTACATATATATTAATAAAT [XGTACX_site4217]”, the “gcPBM binding intensity (ln)” value amounted to 7.14.
“ATTTACATAAATTGCATATATCGATGTAAATAAATA [CACACA_negctrl_site1150]”: the “gcPBM binding intensity (ln)” value was 7.04.
Take “ATATATATATATATATGTACATATATTTATTTATTG [XGTACX_site6267]”: the “gcPBM binding intensity (ln)” value was 9.79.
For “CATTTATTTTTGTTCTGTACATAAAGATGAACAAAA [XGTACX_site6797]”, the “gcPBM binding intensity (ln)” value is 7.25.
As to “ATAAATATGTAAAAAACATGCAAAAAATTAAAGACA [TGCATGCA_site912]”, the “gcPBM binding intensity (ln)” value worked out at 7.08.
“TCATAGTAGAAACACACACACACACCCATATATATA [CACACA_site1737]”: the “gcPBM binding intensity (ln)” value is 7.58.
The figure for “GGAAACAAAAAATATATACACACTAAACATAAAAAA [CACACA_site20]” is 6.89.
In the case of “AACGCACATATATTTATGTATATATATATATATATA [GTGCAC_negctrl_site478]”, the “gcPBM binding intensity (ln)” value came out at 9.51.
The figure for “TTATTAAATAAAATCATGCACACAATATATATTTTA [CACACA_site2496]” is 7.78; for “GTTATTAAACAGAAAAGTACATATGTATATTAAAAT [XGTACX_site3724]” it is 7.28; for “TAAAAAAAAAGAAGCTGTACTAAAAAATTTATATTA [XGTACX_site7408]” it is 6.74.
The same measure for “TTATTACATAACAATATACACACTATTGATTAAAGA [CACACA_site2933]”: 7.01; for “AAATTCATAAAAATATTTTATAATTATATATAGAAT [TGCATGCA_negctrl_site343]”: 6.74.
For “GGGTTTTTTATTAATACATGCATGGAAACGCACTAT [TGCATGCA_site1000]”, the “gcPBM binding intensity (ln)” value came out at 10.3.
The same measure for “ATATATATATAATTTGTACACACAAATATGCATATA [CACACA_site9136]”: 8.94.
The same measure for “AAGAAAAACAATGAGATAAAGAAGAGAAAATATGTC [TGCATGCA_negctrl_site415]”: 7.24; for “AATACTAAAAAGTGTACACATACATAAAAAATTGCA [CACACA_site5620]”: 7.47.
The same measure for “AAGAAAAAAGTTATTAGTACACATTATAATAAAAAG [XGTACX_site3527]”: 7.19; for “TATTGATTTATAAACACACACTCGAAGATGTTTAAC [CACACA_site4760]”: 6.93; for “TATATCTCATAGTATACACACACACCCACCCACATA [CACACA_site8513]”: 7.44.
With “TATATATATGTAAATCGTACAAATTATATATATCAT [XGTACX_site2821]”, the “gcPBM binding intensity (ln)” value came out at 7.19.
